Values marked as one replicate rest on one cluster of the flow cell; about a third of the high ones do not repeat.
Tested on: ATP
Assay: switch fluorescence ratio, 500 uM ATP over buffer (Cy3 cluster intensity, sum of 5 cycles each) (fold (ratio)); higher = stronger signal-on switching upon ATP binding; sequences stand for … in TCGTCGGCAGCGTCAGATGTGTATAAGAGACAGTTTTTTTTTTTTTTTTTTTTTTTTT…TC
Details: aptamer strand: ATP DNA aptamer (quencher-CACCTGGGGGAGTATTGCGGAGGAAGG + anchor), 100 nM annealed; ATP concentration: 500 uM; one replicate
In short: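 Clusters with intensities outside 100-1000 RFU were excluded. The remaining Cy3-labelled switching-strand clusters on a modified Illumina MiSeq flow-cell had been annealed to 100 nM quencher-labelled ATP aptamer and imaged in selection buffer, then after 15 min with 500 uM ATP at 22 °C, for five cycles separated by NaOH stripping and re-annealing. The fluorescence ratio, averaged per switch-domain sequence, is each cluster's summed target-cycle Cy3 intensity over its summed buffer-cycle Cy3 intensity.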
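Also: ATP exposure 15 min at 22 °C before imaging.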

| Sequence | switch fluorescence ratio |
| --- | --- |
| CAGTCAAGCT | 1.02 |
| CAGTCATATC | 1.05 |
| CAGTCCTTAG | 0.991 |
| CAGTCGTTCG | 0.97 |
| CAGTCTACG | 1.04 |
| CAGTCTCTCA | 0.974 |
| CAGTCTGGTT | 1.11 |
| CAGTGACGTC | 1.03 |
| CAGTGAGTGG | 0.977 |
| CAGTGATGCC | 0.983 |
| CAGTGCATAG | 1.02 |
| CAGTGCGCAC | 0.97 |
| CAGTGCGCCG | 1.07 |
| CAGTGTCCAG | 1.04 |
| CAGTGTGTTA | 1.01 |
| CAGTTAAGTT | 1.01 |
| CAGTTACTG | 1.04 |
| CAGTTACTTT | 1.02 |
| CAGTTAGCCA | 1.01 |
| CAGTTCATC | 0.982 |
| CAGTTCCGAC | 1.26 |
| CAGTTGATCG | 0.997 |
| CAGTTGATTT | 0.969 |
| CAGTTGCCAC | 1.05 |
| CAGTTGTTGT | 0.949 |

| Sequence | switch fluorescence ratio |
| --- | --- |
| CAGTTTCCTA | 0.967 |
| CAGTTTGTGT | 1 |
| CATAAAAATT | 0.999 |
| CATAAAATAA | 0.932 |
| CATAACAAT | 1.02 |
| CATAAGAAAA | 1.02 |
| CATAAGGGTC | 0.976 |
| CATAAGTACT | 1.22 |
| CATAATAATT | 0.998 |
| CATAATACCG | 1.05 |
| CATAATGATC | 1.02 |
| CATACGGGAA | 1.23 |
| CATACGGGTT | 0.985 |
| CATACGTAGG | 1.07 |
| CATACTTG | 1 |
| CATAGCGGAA | 1.09 |
| CATAGCGGGG | 0.981 |
| CATAGCTCCA | 1.04 |
| CATAGGCGTG | 1.03 |
| CATAGGTGAT | 1.01 |
| CATAGGTGCA | 1.06 |
| CATAGGTTTC | 0.964 |
| CATATATAGC | 0.981 |
| CATATCATGC | 0.984 |
| CATATCCGGC | 1.03 |

| Sequence | switch fluorescence ratio |
| --- | --- |
| CATATCCTCG | 1.05 |
| CATATCTTAT | 0.972 |
| CATATGGACA | 1.03 |
| CATATGTCAA | 1.04 |
| CATATGTGAA | 0.985 |
| CATATTGATC | 1.06 |
| CATATTGGCC | 0.979 |
| CATATTT | 0.987 |
| CATCAAGCCT | 1.15 |
| CATCACATAA | 1.06 |
| CATCACATAT | 1.09 |
| CATCACCCTG | 1.02 |
| CATCACTCTT | 0.96 |
| CATCACTTCA | 1.06 |
| CATCATGTA | 1.02 |
| CATCCGGTTG | 1.24 |
| CATCCGTTGG | 1.46 |
| CATCCTACAG | 1.01 |
| CATCCTTCCG | 2.01 |
| CATCCTTGAC | 1.08 |
| CATCGAGCAT | 1.7 |
| CATCGAGTCC | 0.981 |
| CATCGAGTTA | 0.957 |
| CATCGGAGTA | 1.01 |
| CATCGGCCAA | 2.97 |

| Sequence | switch fluorescence ratio |
| --- | --- |
| CATCGGCCTA | 1.11 |
| CATCGGCGCT | 1.05 |
| CATCGGTATG | 1 |
| CATCGGTGCA | 0.992 |
| CATCGTCAAG | 1.01 |
| CATCGTCGGG | 0.976 |
| CATCTATCGA | 0.98 |
| CATCTGTGGC | 1.2 |
| CATGACGATT | 1 |
| CATGACGTAC | 1.77 |
| CATGAGAGTC | 1.02 |
| CATGATACTG | 1.05 |
| CATGATCCAG | 0.98 |
| CATGCGACC | 3.3 |
| CATGCGCATC | 2.52 |
| CATGCGGAAC | 1.22 |
| CATGCGTACT | 1.08 |
| CATGGAAATC | 1.02 |
| CATGGACAGG | 0.992 |
| CATGGAGTTG | 0.988 |
| CATGGATAAG | 0.996 |
| CATGGATTCA | 0.994 |
| CATGGATTTG | 0.996 |
| CATGGCTTAG | 1.01 |
| CATGGGGGG | 0.978 |
